About 64,000 (15%) of roughly 420,000 compounds were called active. The shares of active, inactive and inconclusive entries below differ from those in the screen. Calls come from the whole dose curve; as a rule, active = well fitted inhibition curve with a large enough effect; inconclusive = small, poorly fitted or top-dose-only effect; inactive = flat fitted curve, though single readings scatter. No potency is given beside an inconclusive call; the fits are too rough.
Assay: qHTS for Inhibitors of human tyrosyl-DNA phosphodiesterase 1 (TDP1): qHTS in cells in absence of CPT; note: nearly all actives have a fitted effect of over 55% in size
Details: DT40 Tdp1-/- hTDP1 cells, no CPT, ATP luminescence, 48 h; activity change, negative = growth inhibition: at 46.2 µM (top of the series)
How it was run: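 No-CPT arm: Tdp1-/-;hTDP1 DT40 cells (400/well) plus compounds, incubated ≥48 hr at 37 °C. Readout CellTiter-Glo luminescence.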
% is set by controls: 0 for no effect and ±100 for the full control effect; potency is the fitted concentration of half-maximal effect; tags give direction and shape of the fitted curve.

Structure (SMILES)	Potency	activity change, negative = growth inhibition
CCN(CC(=O)Nc1ccccc1OC)C(=O)C1CCCC1	inactive	–
COc1cc2c(cc1OC)C(C1C(=O)CCCC1=O)N(C(=O)CCl)CC2 (stereo not given)	inactive	–
CC(=O)Nc1ccc(S(=O)(=O)N2CCCN(S(=O)(=O)c3ccc(NC(C)=O)cc3)CC2)cc1	inconclusive [inhibitor, partial curve]	–
NS(=O)(=O)OCCCc1ccccc1	inactive	–
O=C(Nc1ccccc1)c1nc[nH]c1C(=O)NCc1ccccc1	inconclusive [inhibitor, single point]	–
CCn1c(NCc2ccc(N(C)C)cc2)nc2ccccc21	inconclusive [inhibitor, single point]	–
O=C(CSc1ccc(Cl)cc1)N/N=C/c1ccc([N+](=O)[O-])o1	inconclusive [inhibitor, single point]	–
NS(=O)(=O)c1ccc(CNC(=O)c2ccc(Cl)cc2[N+](=O)[O-])cc1	inactive	–
COc1ccc(CCN(C(=O)c2cccc(F)c2)C2CC(=O)N(c3ccc(OC)cc3)C2=O)cc1 (stereo not given)	inconclusive [inhibitor, single point]	–
O=C(CNC(=O)c1ccc(Cl)cc1Cl)Nc1ccc(F)cc1	inactive	–
CCN1C(=O)c2cccc3c(S(=O)(=O)N4CCC(C)CC4)ccc1c23	inconclusive [inhibitor, single point]	–
COc1ccc(C(=O)Oc2cc(C)c(CN3CCOCC3)cc2C)cc1OC	inconclusive [inhibitor, single point]	–
O=C(CCNC(=O)c1ccc(Br)cc1)Nc1ccc(S(=O)(=O)Nc2ncccn2)cc1	inactive	–
CCOC(=O)c1[nH]c2cc3c(cc2c1NC(=O)CN1CCC(C)CC1)OCO3	active: 11.2 µM	–
CCCc1ccc2oc(C(=O)N3CCC(COC)C3)c(C)c2c1 (stereo not given)	inconclusive [inhibitor, single point]	–
O=C1S/C(=C\C=C\c2ccco2)C(=O)N1c1ccc(O)cc1	inconclusive [inhibitor, single point]	–
COCCCNc1oc(COc2ccc(Cl)cc2Cl)nc1C#N	inconclusive [inhibitor, single point]	–
COC(=O)c1cccc(COC(=O)c2ccc(CS(=O)(=O)c3ccc(C)cc3)cc2)c1	–	inconclusive: -35.7% [inhibitor]
CC(=O)c1ccc2c(c1)N(Cc1ccccc1Cl)C(=O)C(C)S2 (stereo not given)	inconclusive [inhibitor, single point]	–
O=C(Nc1ccc2c(c1)OCCO2)N1CCN(c2ccc(F)cc2)CC1	inconclusive [inhibitor, partial curve, poor fit]	–
